# Experimental data reported in PubChem BioAssay AID588855 (National Center for Advancing Translational Sciences (NCATS), 2011).
# In all, about 410,000 compounds went through this assay and about 5,000 (1.2%) were called active. The shares of active, inactive and inconclusive entries below differ from those in the screen. The call rests on the fitted dose curve; in most records, active means well fitted inhibition curve with a large enough effect; inconclusive means small, poorly fitted or top-dose-only effect; inactive means no such curve, though single readings can be large or run the other way. A potency beside an inconclusive call is a rough fit, not a confirmed value.
# Assay: qHTS for Inhibitors of TGF-b; further: nearly all actives have a fitted effect of over 65% in size
# Details: HepG2 CAGA-GFP TGF-b/SMAD3 reporter, GFP fluorescence, 18 h, TGF-beta stimulated, 500 pg/mL final; series mostly up to 46.1 µM; activity, negative = inhibition: at the top concentration
# Outline: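 Read-out: total well GFP (ex488/em500-530) summed from mean per-cell fluorescence. Cells: HEPG2 CAGA-GFP, 1% FBS DMEM, 18 h at 37 degrees C with 500 pg/mL final TGF-beta. Unstimulated wells served as the full-inhibition control; stimulated DMSO wells = 0%.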
# On the % scale 0 is the no-effect control and ±100 the full control effect; potency means the concentration at half of the fitted maximal effect; tags describe the fitted curve by direction and shape.
Compound,Potency,"activity, negative = inhibition"
Cc1cc(NC(=O)CSc2nnc(-c3cccs3)n2N)no1,"inconclusive: 35.5 µM [inhibitor, single point]",
CN(C(=O)c1ccc([N+](=O)[O-])cc1)c1ccccc1C(=O)NCc1ccccc1,"inconclusive: 7.94 µM [inhibitor, partial curve, poor fit]",
CCN1CC(CN(C)Cc2cn(-c3ccc(C)cc3)nc2-c2cccc(C)c2)CC1=O (stereo unspecified),"inconclusive: 35.5 µM [inhibitor, partial curve, poor fit]",
Cc1ccc(C2NC(c3ccc(C)cc3)C(C)C(=NO)C2C)cc1 (stereo unspecified),"inconclusive: 35.5 µM [inhibitor, single point]",
CCOC(=O)c1sc2ncn(CC(=O)Nc3ccc(N(C)C)cc3)c(=O)c2c1C,"inconclusive: 5.01 µM [inhibitor, full curve, poor fit]",
C/C(=N\Nc1nnc2c3ccccc3n(C)c2n1)c1ccc(C)o1,,inactive: -28.1%
COc1cccc(CN=CC2=C(O)CC(C)(C)CC2=O)c1OC,"inconclusive: 0.891 µM [inhibitor, full curve, poor fit]",
CCCCN(CCCC)S(=O)(=O)c1ccc(NC(=O)c2cccs2)cc1,"inconclusive: 35.5 µM [inhibitor, single point]",
CCn1c(=O)cc(OCC(=O)NCCC(C)C)c2ccccc21,,inactive: -2.38%
Cc1c(N=C(N)/N=C(\N)Nc2ccc(Br)cc2)c(=O)n(-c2ccccc2)n1C,,inactive: 0.372%
Cc1ccc2[nH]c(CSc3nnc(NC(=O)COc4ccccc4)s3)cc(=O)c2c1,"inconclusive: 35.5 µM [inhibitor, single point]",
Cc1ccc(C)c(Sc2ccc(NC(=O)CCN3C(=O)NC4(CCCC4)C3=O)cc2)c1,"inconclusive: 35.5 µM [inhibitor, single point]",
CCC1(C)Cc2ccccc2-c2nc3n(c(=O)c21)CCS3 (stereo unspecified),"inconclusive: 35.5 µM [inhibitor, single point]",
C=CCc1cccc(/C=N/NC(=O)CCC(=O)Nc2ccc(C)cc2)c1O,,inactive: -41.8%
NC(=O)[C@H]1CC2(CC(c3cccc(NC(=O)[C@H]4CCC(=O)N4)c3)=NO2)CN1C(=O)CC(c1ccccc1)c1ccccc1 (stereo partly specified),"inconclusive: 15.8 µM [inhibitor, single point]",
COc1cc(NC(=O)C2CC(=O)N(CCc3ccc(F)cc3)C2)cc(OC)c1OC (stereo unspecified),,inactive: -21.3%
COc1ccc(NC(=O)c2cccc(S(=O)(=O)N3CCCCCC3)c2)cc1,"inconclusive: 35.5 µM [inhibitor, single point]",
CCOC(=O)C1CCN(Cc2cc(Cl)c3ccccc3c2O)CC1,"inconclusive: 11.2 µM [inhibitor, partial curve, poor fit]",
CCN(CC(=O)Nc1ccccc1OC)CC(=O)Nc1ccccc1-c1ccccc1,"inconclusive: 6.31 µM [inhibitor, single point]",
CCOC1=C2[C@@H](CN(S(=O)(=O)c3ccc(C)cc3)[C@H]2c2ccccc2F)[C@H]2C(=O)NC(=O)[C@H]2C1,,inactive: -6.51%
Cc1ccc(CNC(=O)c2ccc(N3CCC4(CC3)CC(c3cccc(Br)c3)=NO4)c(N)c2)cc1,,inactive: -16%
Cc1nc(C(F)(F)F)ccc1C(=O)N1CCCCCC1(C)C(=O)NCC(C)C (stereo unspecified),,inactive: -8.15%

Compound,Potency,"activity, negative = inhibition"
CC(C)(C)c1nc2cc(Cl)c([N+](=O)[O-])cc2o1,active: 7.08 µM,
Cc1ccc(C)c(N2CCN(S(=O)(=O)c3cc(Br)cc4c3N(C(=O)C3CC3)CC4)CC2)c1,,inactive: 4.72%
CCCN(CCC)C(=O)CC(c1ccccc1)c1ccc(C)cc1O (stereo unspecified),"inconclusive: 35.5 µM [inhibitor, single point]",
CCC(C)[C@H](NC(=O)[C@H](Cc1ccccc1)n1c(=O)[nH]c2ccccc2c1=O)C(=O)NCC1CCC(C(=O)O)CC1 (stereo partly specified),,inactive: -3.97%
Cc1c(C(=O)Nc2c3c(nn2C(C)(C)C)CS(=O)(=O)C3)cccc1[N+](=O)[O-],,inactive: 2.22%
COc1ccc(-c2nc3sc(CCNC(=O)c4cc(OC)c(OC)c(OC)c4)c(C)n3n2)cc1,"inconclusive: 20 µM [inhibitor, partial curve]",
NC(=O)NC(=O)COC(=O)c1ccccc1Oc1ccccc1,"inconclusive: 6.31 µM [inhibitor, single point]",
COC(=O)c1nc2n(n1)C(c1cccc(Cl)c1)C(C(=O)Nc1ccccc1OC)=C(C)N2 (stereo unspecified),"inconclusive: 35.5 µM [inhibitor, partial curve, poor fit]",
COc1ccc([C@H]2CC(=O)C=C(c3cccc(Br)c3)C2)cc1,"inconclusive: 20 µM [inhibitor, single point]",
Cc1c2cnn(-c3ccccc3)c(=O)c2c(C)n1CCCC(=O)Nc1cc(F)ccc1F,"inconclusive: 15.8 µM [inhibitor, single point]",
COc1cccc(C=NNc2nnc(NN=Cc3cccc(OC)c3OC)c3ccccc23)c1OC,"inconclusive: 22.4 µM [inhibitor, single point]",
CCOc1ccc(CCNC(=O)c2ccc3c(Cl)c4c(nc3c2)CCCC4)cc1,"inconclusive: 0.501 µM [inhibitor, full curve, poor fit]",
O=S(=O)(NCCc1nnc2ccc(SCc3ccc(Cl)cc3Cl)nn12)c1ccccc1,"inconclusive: 0.112 µM [inhibitor, full curve, poor fit]",
CCOc1ccccc1NC(=O)c1sc2nc3n(c(=O)c2c1C)CCCCC3,"inconclusive: 35.5 µM [inhibitor, single point]",
CCOC(=O)C1=CCC(c2ccccc2)N(S(=O)(=O)c2ccccc2[N+](=O)[O-])C1 (stereo unspecified),"inconclusive: 10 µM [inhibitor, single point]",
COCCNc1nnc(SCC(=O)Nc2sc3c(c2C(=O)c2ccccc2)CCCC3)s1,"inconclusive: 35.5 µM [inhibitor, single point]",
O=[N+]([O-])c1ccc(Cl)c(S(=O)(=O)/N=C(/Sc2ccc(Br)cc2)c2ccccc2)c1,,inactive: 9.75%
CCOc1cc(C2NN=C(c3ccc(C)cc3)S2)ccc1O (stereo unspecified),,inactive: 3.09%
COc1ccc(OC)c(Cc2nnc(CCC(=O)NC3C4CC5CC(C4)CC3C5)o2)c1 (stereo unspecified),,inactive: -9.32%
Cn1c(CNc2nc(-c3ccccc3)cs2)nnc1SCC(=O)N1CCc2ccccc21,"inconclusive: 35.5 µM [inhibitor, single point]",
COc1ccc(NC(=S)c2ccccc2)cc1,,inactive: 4.32%
O=c1[nH]c2ccsc2c(=O)n1-c1ccc(F)c(Cl)c1,"inconclusive: 35.5 µM [inhibitor, single point]",

Compound,Potency,"activity, negative = inhibition"
Cc1cccn2cc(CCNC(=O)c3cccs3)nc12,,inactive: 7.16%
CCc1ccc(S(=O)(=O)c2cn(CC(=O)Nc3ccc(C)cc3)c3ccccc3c2=O)cc1,,inactive: -10.7%
CCCOC(=O)C1=C(C)N(C)C(=O)NC1c1cc2c(cc1Br)OCO2 (stereo unspecified),,inactive: -11.5%
N#CC1=C(SCC(=O)c2ccc(Cl)cc2)NC2=C(C(=O)CCC2)C1c1ccco1 (stereo unspecified),"inconclusive: 22.4 µM [inhibitor, single point]",
COc1ccc(CSc2nc(CSC)cc(N3CCOCC3)n2)cc1,"inconclusive: 35.5 µM [inhibitor, single point]",
CCc1ccc(-c2csc(NC(=O)C3=COCCO3)n2)cc1,"inconclusive: 35.5 µM [inhibitor, single point]",
COC(=O)c1scc(-c2ccc(C)cc2)c1S(=O)(=O)Nc1cc(Cl)ccc1C,"inconclusive: 35.5 µM [inhibitor, single point]",
O=C(NCc1nc2ccccc2[nH]1)C1=C[C@H](c2ccc3c(c2)OCO3)C[C@H](OCCCCO)O1,"inconclusive: 35.5 µM [inhibitor, single point]",
O=C(Cc1cccc2ccccc12)Nc1cc(Cl)ccc1C(=O)O,"inconclusive: 20 µM [inhibitor, partial curve, poor fit]",
CCOc1ccc(CCN2C(=S)N([C@@H](Cc3ccc(O)cc3)CN3CCC[C@@H]3CN3C(=S)NC[C@@H]3CC(C)C)C[C@@H]2Cc2ccc(O)cc2)cc1,active: 4.47 µM,
Cc1ccc(C(=O)NNC(=O)c2csc(N3CCOCC3)n2)s1,,inactive: -15.6%
C[C@@H]1CN([C@H](C)CO)C(=O)c2cccc(NC(=O)NC3CCCCC3)c2O[C@@H]1CN(C)C(=O)Nc1ccc(C(F)(F)F)cc1,"inconclusive: 35.5 µM [inhibitor, single point]",
Cn1c(SCc2ccc(F)cc2)nc2ccc(C(=O)NCc3ccc(Cl)cc3)cc21,"inconclusive: 11.2 µM [inhibitor, partial curve]",
NC(=O)C1CCN(C(=S)c2ccc(-c3ccc(Br)cc3)o2)CC1,,inactive: 18.1%
COc1ccc(-c2noc(CN(C(=O)COc3cc(C)c(Br)c(C)c3)C(C)C)n2)cc1,"inconclusive: 3.55 µM [inhibitor, partial curve, poor fit]",
CCN(CC)c1ccc(NS(=O)(=O)c2ccc(-c3cnc(C4CC4)o3)cc2)c(C)c1,"inconclusive: 7.08 µM [inhibitor, partial curve, poor fit]",
Cc1nnc(-c2ccccc2)c(=O)n1/N=C/c1c(O)ccc2ccccc12,,inactive: -0.266%
CC1(C)CC2CN(C(=O)Cc3ccccc3)C(C)(C2)C1 (stereo unspecified),,inactive: 5.82%
Cc1nn(Cc2ccc(Cl)cc2)c(C)c1NC(=O)C(c1ccccc1)c1ccccc1,"inconclusive: 10 µM [inhibitor, single point]",
c1csc(C(c2nnnn2C2CCCCC2)N2CCCC3(CCCCC3)C2)c1 (stereo unspecified),,inactive: -9.69%
CCCn1c(SCc2nc(-c3ccc(OC)cc3OC)no2)nnc1-c1ccc(Cl)cc1,"inconclusive: 22.4 µM [inhibitor, single point]",
COC/C=C/C1=CC2=CC(=O)C(C)(OC(=O)c3cnc4ccccc4n3)C(=O)C2=CN1c1ccc(OC)cc1 (stereo unspecified),"inconclusive: 0.355 µM [inhibitor, full curve, poor fit]",
